#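 Grown in 96-well plates, cells were treated for 48 hours with each compound at five concentrations. Insufficient inhibition: endpoint recorded as highest concentration tested. GI50 is the concentration that inhibits growth by half.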 Calls of active or inactive are those of the source. Cut-off read from the data, not from the text of the source: active = GI50 up to about 1.1 µM and inactive = higher.
# Test system: NCI-H322M
# Assay: growth of human tumour cells (NCI), 48 h
row,Structure (SMILES),GI50
1,O=C(COc1ccccc1)NS(=O)(=O)c1ccccc1,inactive: > 100 µM
2,CC1(C)CC(=O)C(Cc2ccccc2)(Cc2ccccc2)C(=O)C1,inactive: > 100 µM
3,COC(=O)/C=C(\C)C(=O)N(C)c1ccccc1I,inactive: > 100 µM
4,COc1ccc(-c2cc(O)c3cc4c(cc3n2)OCO4)c(OC)c1,inactive: 60.8 µM
5,COC(=O)C(C(=O)C(=O)Nc1cccc(OC)c1)c1cnc2ccccc2n1 (configuration not stated),inactive: > 100 µM
6,CCN(CC)C(=S)SC(=S)N(CC)CC,inactive: 69.3 µM
7,CCOC(=O)C(C(=O)COC(C)(C)C)[C@@H]1C=C[C@H](OC(C)=O)C1 (some centres not stated),inactive: > 100 µM
8,[O-]c1on[n+]2c1c(Nc1ccc(Cl)cc1)nc1ccccc12,inactive: > 100 µM
9,O=C(c1ccco1)c1ccccc1C(=O)c1ccco1,inactive: > 100 µM
10,Oc1ccc2c(c1)CC[N+]1=C2CCC2CCCC21 (configuration not stated) [QUINDONIUM BROMIDE],inactive: > 100 µM
11,O=Cc1ccc2[nH]c(=O)oc2c1,inactive: > 100 µM
12,Cc1cc(S(=O)(=O)NC2=Nc3cccc(F)c3CN2)c(S)cc1Cl,inactive: 53.3 µM
13,CN(C)c1ccc(/C=C/C(=O)c2ccc(O)cc2)cc1,inactive: 43.5 µM
14,CC(=O)c1c(O)cc(O)c(-c2c(C)cc(O)c3c2C(=O)c2cccc(O)c2C3=O)c1O,inactive: 14.3 µM
15,CCCCCCCCCC(=O)N[C@@H](c1ccco1)[C@@H](O)C(=O)O[C@H]1C[C@@]2(O)[C@@H](OC(=O)c3ccccc3)[C@@H]3[C@]4(OC(C)=O)CO[C@@H]4C[C@H](O)[C@@]3(C)C(=O)[C@H](OC(C)=O)C(=C1C)C2(C)C,active: 0.813 µM
16,Cn1ccc2c(C(=O)c3ccccc3)cccc2c1=O,inactive: 68.7 µM
17,Cc1cc(O)c(C(=O)CC2(O)C(=O)Nc3c(Cl)cc(Cl)cc32)c(=O)o1 (configuration not stated),inactive: > 100 µM
18,Cc1ccc(S(=O)(=O)NC(=O)Nc2ccc(C(=O)O)cc2)cc1,inactive: > 100 µM
19,COC(=O)C(CCC1C=CCC1)/N=C\c1ccccc1 (configuration not stated),inactive: 43.6 µM
20,N#Cc1ccc(C2ON=C(c3ccccc3)N2C23CC4CC(CC(C4)C2)C3)cc1 (configuration not stated),inactive: > 10 µM
21,CCCCCCCCCCC(C)CCCCCCC(=O)O (configuration not stated),inactive: > 100 µM
22,OC(CCNCc1ccccc1)c1ccc2ccccc2c1 (configuration not stated),inactive: 23.4 µM
23,COc1ccc2cc3c4cc(OC)c(OC)cc4ccn3c2c1,inactive: > 100 µM
24,C/C(CC(=O)Nc1cc(C)ccc1C)=N/N=C(N)N,inactive: > 100 µM
25,O=C1N[C@@H]2CCC[C@@H]2[C@@H]1c1ccc(Cl)cc1,inactive: > 100 µM

row,Structure (SMILES),GI50
1,Cc1cc(O)c(C(C)C)cc1/N=C/c1ccccc1O,inactive: 13.8 µM
2,CCCC/C=C1\CCC(CN2CCOCC2)C1=O (configuration not stated),inactive: 17.1 µM
3,CC(Cc1ccc(Cl)cc1Cl)NO (configuration not stated),inactive: > 100 µM
4,CN(C)CC1CCCC1=O (configuration not stated),inactive: 24.8 µM
5,O=C1Oc2ccccc2C(=O)/C1=C\NC(=S)c1ccncc1,inactive: > 100 µM
6,CCc1n[nH]c(=O)n1/N=C/c1ccc(/C=N/n2c(CC)n[nH]c2=O)cc1,inactive: > 100 µM
7,Cc1ccc2c(c1)C(=O)C1(C2)Cc2c(C)cccc2C1=O (configuration not stated),inactive: > 100 µM
8,Cn1c2ccccc2n2c3ncccc3/c(=N/CCCC(=O)O)c(C#N)c12,inactive: > 100 µM
9,Cc1c2cccc-2c(N(C)C)cc2c1[nH]c1ccccc12,inactive: 8.69 µM
10,Nc1cc2c3c(cccc3c1)C(=O)N(c1ccc(OCCN3CCCC3)cc1)C2=O,inactive: 20.3 µM
11,CC(Cc1ccc(O)c(O)c1)C(C)Cc1ccc(O)c(O)c1 (configuration not stated) [NORDIHYDROGUAIARETIC ACID],inactive: 23.8 µM
12,N#C/C(=C1C=C(Br)/C(=N\O)C=C\1Cl)c1cccc2ccccc12,inactive: 4.45 µM
13,CSc1c2c(C)n[nH]c2nn1-c1ccccc1,inactive: 27.2 µM
14,C[S+]([O-])c1ncc2c(n1)-c1ccccc1OC2 (configuration not stated),inactive: 48.1 µM
15,C=CC[C@@]1([C@H](C=C)COCc2ccc(OC)cc2)CC[C@]2(C)OC(C)(C)[C@@H](c3ccccc3)N2C1=S,inactive: > 100 µM
16,[N-]=[N+]=NC1=C(C(=O)c2ccccc2)C(=O)c2cccc3cccc1c23,inactive: 71.8 µM
17,Cc1cnc2nc(-c3sccc3C)cc(O)c2c1,inactive: 6.12 µM
18,NC(=O)c1csc(CCCCCCc2nc(C(N)=O)cs2)n1,inactive: > 100 µM
19,CC(C)(C)N1C(C(=O)c2ccccc2)C1c1ccccc1 (configuration not stated),inactive: > 100 µM
20,C=CCOCC1C2CCC3(OCCO3)C21 (configuration not stated),inactive: > 100 µM
21,O=C1/C(=C/c2ccc(O)cc2)CCC1CNc1ccccc1 (configuration not stated),inactive: 13.4 µM
22,Cc1cn(C2CC(O)C(Cn3nncc3Cn3ccc(=O)[nH]c3=O)O2)c(=O)[nH]c1=O (configuration not stated),inactive: > 100 µM
23,COC1/C(=C\C(C)=O)c2ccccc2N1C(C)=O (configuration not stated),inactive: > 100 µM
24,COc1ccc2c(c1OC)C(Br)CCC(Br)(Br)C2=O (configuration not stated),inactive: 17.1 µM
25,CC(=O)OCC1OC(SC2=N/C(=C\c3cc4c(=O)c5ccccc5sc4s3)C(=O)N2c2ccccc2)C(OC(C)=O)C(OC(C)=O)C1OC(C)=O (configuration not stated),inactive: > 100 µM

row,Structure (SMILES),GI50
1,CCOC(=O)c1[nH]c2nc(SC)nc(NC)c2c1N,inactive: > 100 µM
2,O=C1C(Cl)C(c2cc(Br)ccc2O)N1n1cnc2ccccc2c1=O (configuration not stated),inactive: 12.2 µM
3,O=C(O)[C@@H]1CCCN1 [PROLINE],inactive: > 100 µM
4,CCOC(=O)c1ccn2c(c1)c(C#N)c1nc3ccccc3nc12,inactive: > 100 µM
5,Brc1ccc2nc(-c3cccs3)nc(N3CCN(c4ccccc4)CC3)c2c1,inactive: > 100 µM
6,ON(CCc1ccncc1)Cc1ccccc1,inactive: > 100 µM
7,O=c1[nH]c(=O)n(C2CC(O)C(CO)O2)cc1OCC1CCCCC1 (configuration not stated),inactive: > 100 µM
8,Cc1ccc(O)c(-c2cscn2)c1,inactive: 48.5 µM
9,CCCCC#COS(=O)(=O)c1ccc(C)cc1,inactive: > 100 µM
10,C=C1C(=O)O[C@H]2C1C[C@@H](O)[C@@]1(C)OC1CC[C@@]1(C)O[C@H]21 (some centres not stated),inactive: 21.2 µM
11,NNC(=O)Cn1ccnn1,inactive: > 100 µM
12,CCOC(=O)/C(=C\NC(C)(C)C)c1nc2ccccc2o1,inactive: 43.6 µM
13,CC1OC(Oc2c(-c3cc(O)c(O)c(O)c3)oc3cc(O)cc(O)c3c2=O)C(O)C(O)C1O (configuration not stated),inactive: > 100 µM
14,Oc1nnc(-c2ccc(F)cc2)cc1-c1ccccc1,inactive: > 100 µM
15,CCCCCCCC(=O)OCC1OC(n2cc(F)c(=O)[nH]c2=O)C(N)C(OC(=O)CCCCCCC)C1O (configuration not stated),inactive: 18.9 µM
16,C#CCNC(=O)NC(CCCCNC(=O)OCc1ccccc1)C(=O)OCc1ccccc1 (configuration not stated),inactive: > 100 µM
17,CC1=C(C(=O)Nc2ccccc2)C(c2ccccc2Cl)C(C(=O)Nc2ccccc2)=C(C)N1,inactive: 56.1 µM
18,O=C(CCn1[nH]c(=O)c(Cl)c(Cl)c1=O)NO,inactive: > 100 µM
19,O=C1CSC2=NC3=C(CSC/C3=C\c3ccccc3)C(c3ccccc3)N12 (configuration not stated),inactive: > 100 µM
20,CCOC(=O)C1CCC(=O)N1C(=O)c1cccc(Cl)c1 (configuration not stated),inactive: > 100 µM
21,C1C2CC3CC1CC(c1nn4c(C56CC7CC(CC(C7)C5)C6)nnc4s1)(C2)C3,inactive: > 100 µM
22,CN1CCN(c2nc3cc(F)ccc3n3cccc23)CC1,inactive: 28.4 µM
23,COC(=O)c1cc(C#N)[nH]c1-c1ccc(Br)s1,inactive: 15.6 µM
24,C=C(C)C(=O)OC1C[C@H](COC(C)=O)C2CC=C(C)C2C2OC(=O)C(=C)[C@H]12 (some centres not stated),inactive: 16.1 µM
25,O=C(O)CCSCCCN1C(=O)c2ccccc2C1=O,inactive: > 100 µM

row,Structure (SMILES),GI50
1,COc1cc(C=O)cc(/C=N/c2ccccn2)c1O,inactive: 36.9 µM
2,O=C1NC(=S)N/C1=C\c1ccc(Br)s1,inactive: > 100 µM
3,C=C1C(=O)O[C@H]2C1C[C@@H](OC(C)=O)/C(C)=C/CC[C@@]1(C)O[C@H]21 (some centres not stated),inactive: 19.8 µM
4,CCN(CC)C(=S)SS(=O)(=O)c1ccc(NC(C)=O)cc1,inactive: 49.5 µM
5,CCOC(=O)CNC1C(NC(C)=O)C(OC)OC2COC(c3ccccc3)OC21 (configuration not stated),inactive: > 100 µM
6,CN1CCN=C1c1nnn(-c2ccc([N+](=O)[O-])cc2)c1-c1ccccc1,inactive: > 100 µM
7,CSc1nc(NC2OC(COC(C)=O)C(OC(C)=O)C(OC(C)=O)C2OC(C)=O)c2c(OC(C)=O)c(C)c(=O)oc2n1 (configuration not stated),inactive: > 100 µM
8,CCOC(=O)CCC1(CCC(=O)OCC)CCCCCCCCC(CCC(=O)OCC)(CCC(=O)OCC)C(=O)C1=O,inactive: > 100 µM
9,CSC1=NC=CCN1C,inactive: > 100 µM
10,COC(=O)C(CC(=O)c1ccccc1)c1ccccc1NC(C)=O (configuration not stated),inactive: > 100 µM
11,Oc1c(Cl)cc(Cl)cc1/C=N/Nc1ccccn1,inactive: 1.67 µM
12,Cc1ccc(F)c2c(=O)cc(-c3ccccc3)[nH]c12,inactive: > 100 µM
13,O=C(/C=C/c1ccc(-c2ccccc2)cc1)NCc1ccc(C(=O)NCCc2c[nH]c3ccccc23)cc1,inactive: 45.3 µM
14,COc1ccc(CNNC(=O)c2cc[n+]([BH2-]C#N)cc2)cc1OC,inactive: > 100 µM
15,[N-]=[N+]=NC1=NNC2(C(=O)N1)c1ccccc1-c1ccccc12,inactive: > 100 µM
16,Nc1c([N+](=O)[O-])nc(Cl)c2nncn12,inactive: > 100 µM
17,C=CCc1cccc2cc(C(=O)Nc3ccccn3)c(=N)oc12,inactive: > 100 µM
18,Cc1cc(Cl)ccc1NC(=O)CCCC(=O)C1CCCC1=O (configuration not stated),inactive: > 100 µM
19,Cc1cc(C)n(-c2nc(C)c(CCO)c(=O)[nH]2)n1,inactive: > 100 µM
20,CC(C)(CC#N)c1cc(CC(C)(C)c2cc(CC(C)(C)c3cc(C(C)(C)C4(C)OCCO4)no3)no2)no1,inactive: 36.2 µM
21,CC(C)(c1ccccc1)c1ccc(Oc2ccc3c(c2)-c2nc-3nc3[nH]c(nc4nc(nc5[nH]c(n2)c2ccc(Oc6ccc(C(C)(C)c7ccccc7)cc6)cc52)-c2cc(Oc5ccc(C(C)(C)c6ccccc6)cc5)ccc2-4)c2ccc(Oc4ccc(C(C)(C)c5ccccc5)cc4)cc32)cc1,inactive: > 100 µM
22,O=C(Cc1ccccc1)NN1C(=O)C(Cl)C1c1ccc([N+](=O)[O-])cc1 (configuration not stated),inactive: > 100 µM

# Reference: ChEMBL document CHEMBL1201862, “PubChem BioAssay data set” (2004)
